Activation data for 21 compounds are collected here from PubChem BioAssay AID1645887 (National Center for Advancing Translational Sciences (NCATS), 2021).

The structures appear in SMILES notation. Several values for one entry are separate records, joined by “and”; a condition that tells them apart may be missing. Equal values may be shown once. Screen size: about 16,000 compounds; about 40 (0.2%) were called active. Another 1% or so got no clear call; they are omitted. Calls follow the shape of the dose curve; as a rule, active = well fitted activation curve with a large enough effect; inconclusive = small, poorly fitted or top-dose-only effect, or another doubt; inactive = no such curve, though single readings can be large or run the other way. The list shows a part of the results.
% is scaled to controls: 0 for no effect and ±100 for the full control effect.

Sequence of UniProt Q8WZA2 (Q8WZA2 whole entry, looked up): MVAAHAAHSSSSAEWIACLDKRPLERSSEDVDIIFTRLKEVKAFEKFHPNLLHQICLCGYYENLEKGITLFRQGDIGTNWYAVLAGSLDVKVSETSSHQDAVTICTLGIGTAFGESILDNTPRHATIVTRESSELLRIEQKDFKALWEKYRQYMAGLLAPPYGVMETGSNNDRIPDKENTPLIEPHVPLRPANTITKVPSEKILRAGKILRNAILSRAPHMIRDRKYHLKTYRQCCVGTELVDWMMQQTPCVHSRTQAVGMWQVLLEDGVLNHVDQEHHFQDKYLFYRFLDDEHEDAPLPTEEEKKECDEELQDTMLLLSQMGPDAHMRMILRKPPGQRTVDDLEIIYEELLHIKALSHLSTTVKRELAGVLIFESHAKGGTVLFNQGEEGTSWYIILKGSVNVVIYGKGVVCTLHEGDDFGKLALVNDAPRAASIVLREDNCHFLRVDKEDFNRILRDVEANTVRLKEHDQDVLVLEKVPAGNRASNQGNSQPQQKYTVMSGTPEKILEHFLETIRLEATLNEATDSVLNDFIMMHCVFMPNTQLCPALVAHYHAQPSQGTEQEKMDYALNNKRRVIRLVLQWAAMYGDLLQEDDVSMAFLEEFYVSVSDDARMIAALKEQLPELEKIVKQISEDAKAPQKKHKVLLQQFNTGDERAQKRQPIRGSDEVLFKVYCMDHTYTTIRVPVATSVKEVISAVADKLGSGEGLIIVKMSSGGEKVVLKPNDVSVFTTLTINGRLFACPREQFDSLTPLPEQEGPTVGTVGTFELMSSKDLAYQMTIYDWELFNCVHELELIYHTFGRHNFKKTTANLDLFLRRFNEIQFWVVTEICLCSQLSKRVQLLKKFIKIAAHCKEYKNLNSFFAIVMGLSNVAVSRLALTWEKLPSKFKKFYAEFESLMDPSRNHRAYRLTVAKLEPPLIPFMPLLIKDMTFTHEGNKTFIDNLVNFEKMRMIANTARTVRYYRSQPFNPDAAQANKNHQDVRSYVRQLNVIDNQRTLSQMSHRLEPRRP

The target of the assay is Rap guanine nucleotide exchange factor 4 (Homo sapiens) (UniProt Q8WZA2). The experiment in a line: Validation qHTS for agonist of cAMP-regulated guanine nucleotide exchange factor 4 (EPAC2).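 Also: exchange makes BODIPY-GDP fluorescence drop when released from Rap1B; series mostly up to about 150 µM.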 As to conditions: EPAC2 Rap1B BODIPY-GDP exchange, fluorescence; activation: hits give high values. An outline of the steps:
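Fluorescent exchange assay: 100 nM EPAC2 with 250 nM RAP1B-BODIPY-GDP and 50 uM GDP; compound added, 5 min at room temperature, then read (ex 480/em 540 nm) every 5 min for 30 min. Normalized to 6.5 mM cAMP agonist control.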
(qHTS replaces the single test concentration by a dilution series.)
For the compound `O=Nc1c(-c2c(O)[nH]c3ccccc23)[nH]c2ccccc12`, the activation is inactive: -3.12% and inactive: -11.1% and inactive: -53.9%.

Take `Cc1ccc(C(=O)c2cc(O)c(O)c([N+](=O)[O-])c2)cc1`: the activation is inactive: 4.14%.

With `Cc1cnc(-n2ncc(C(=O)NCC3CCCN(C)C3)c2C)nc1-c1cccs1` (stereo unspecified), the activation was inactive: 5.63%.

Regarding `COCc1c(C(C)C)nc(C(C)C)c(/C=C/[C@@H](O)C[C@@H](O)CC(=O)O)c1-c1ccc(F)cc1`, the activation is inactive: -43.4%.

For `COc1ccc(-c2nc3cc(C)ccc3cc2CN(C(=O)c2csc(C)n2)C2CC2)cc1OC`, the activation was inactive: 5.64%.

Turning to `COCCC(=O)NCC1Cc2cc(Cl)cc(-c3ccc4[nH]ccc4c3)c2O1` (stereo unspecified), the activation is inactive: -17.7%.

`CC(=O)OC1CC[C@]2(C)C(CC(OC(C)=O)[C@]3(C)C2CC[C@@]2(C)C(c4ccoc4)OC(=O)C4O[C@]432)C1(C)C` (stereo partly specified): the activation was inactive: -22.7%.

For `Cn1cccc1C(=O)N1CCC2(CC1)CCN(C(c1ccccc1)c1ccccc1)CC2`, the activation is inactive: -16.9%.

`COc1ccc(C(=O)NCc2cccnc2)cc1C(=O)NCc1cccnc1`: the activation was inactive: -39%.

Take `CO[C@H]1[C@H](NC(=O)c2ccsc2)c2ccccc2C12CCN(Cc1cc(Cl)ccc1O)CC2`: the activation was inactive: -16.6%.

`CC=CC1=C(C(=O)O)N2C(=O)[C@H](NC(=O)[C@H](N)c3ccc(O)cc3)[C@@H]2SC1`: the activation is inactive: -0.256%.

On to `CS(=O)(=O)N1CCC2(CCCN(C(=O)Nc3ccccc3)C2)CC1`, for which the activation is inactive: -3.26%.

Consider `COc1ccccc1-c1nc(NCCNC(C)=O)c2ccccc2n1`, for which the activation is inactive: -22.8%.

For the compound `CC1(C)CC[C@]2(C(=O)O)CC[C@@]3(C)C(=CCC4[C@@]5(C)CCC(O)[C@@](C)(CO)C5CC[C@@]43C)C2C1` (stereo partly specified), the activation was inactive: -35%.

Turning to `CCOC(=O)[C@H](N)/C=C(\C)CP(=O)(O)O`, the activation is inactive: -14.6%.

Turning to `CS(=O)(=O)N1CCC2(CCN(c3cccc(-c4ccccc4)c3)CC2)CC1`, the activation was inactive: 7.37%.

Turning to `CC(=O)N[C@@H](CC(C)C)C(=O)O`, the activation was inactive: -4.65%.

`Cc1nccn1CC1CCC2C(C1=O)c1ccccc1N2C` (stereo unspecified): the activation was inactive: 5.56%.

As to `CC[C@]1(O)C[C@@H]2CN(CCc3c([nH]c4ccccc34)[C@](C(=O)OC)(c3cc4c(cc3OC)N(C)[C@H]3[C@](O)(C(=O)OC)[C@@H](C(=O)OC)[C@@]5(CC)C=CCN6CC[C@@]43[C@@H]65)C2)C1`, the activation is inactive: 0.335%.

`C[N+]1(CC(=O)c2cccc([N+](=O)[O-])c2)CCOCC1`: the activation was inactive: -6.39%.

In the case of `CCOC(=O)c1ccc(-c2c(-c3cc(OC)c(OC)c(OC)c3)noc2C)cc1F`, the activation was inactive: -9.26%.
